# About 2,200 (0.71%) of roughly 310,000 compounds showed an effect of 50% or more. The effect is printed as a negative number. The list shows a part of the results.
# Target: human ether-à-go-go-related gene (hERG) potassium channel (human, UniProt Q12809)
# Experiment: primary screen, population patch clamp on CHO cells stably expressing hERG
# human ether-à-go-go-related gene (hERG) potassium channel, sequence (Q12809 whole entry, looked up): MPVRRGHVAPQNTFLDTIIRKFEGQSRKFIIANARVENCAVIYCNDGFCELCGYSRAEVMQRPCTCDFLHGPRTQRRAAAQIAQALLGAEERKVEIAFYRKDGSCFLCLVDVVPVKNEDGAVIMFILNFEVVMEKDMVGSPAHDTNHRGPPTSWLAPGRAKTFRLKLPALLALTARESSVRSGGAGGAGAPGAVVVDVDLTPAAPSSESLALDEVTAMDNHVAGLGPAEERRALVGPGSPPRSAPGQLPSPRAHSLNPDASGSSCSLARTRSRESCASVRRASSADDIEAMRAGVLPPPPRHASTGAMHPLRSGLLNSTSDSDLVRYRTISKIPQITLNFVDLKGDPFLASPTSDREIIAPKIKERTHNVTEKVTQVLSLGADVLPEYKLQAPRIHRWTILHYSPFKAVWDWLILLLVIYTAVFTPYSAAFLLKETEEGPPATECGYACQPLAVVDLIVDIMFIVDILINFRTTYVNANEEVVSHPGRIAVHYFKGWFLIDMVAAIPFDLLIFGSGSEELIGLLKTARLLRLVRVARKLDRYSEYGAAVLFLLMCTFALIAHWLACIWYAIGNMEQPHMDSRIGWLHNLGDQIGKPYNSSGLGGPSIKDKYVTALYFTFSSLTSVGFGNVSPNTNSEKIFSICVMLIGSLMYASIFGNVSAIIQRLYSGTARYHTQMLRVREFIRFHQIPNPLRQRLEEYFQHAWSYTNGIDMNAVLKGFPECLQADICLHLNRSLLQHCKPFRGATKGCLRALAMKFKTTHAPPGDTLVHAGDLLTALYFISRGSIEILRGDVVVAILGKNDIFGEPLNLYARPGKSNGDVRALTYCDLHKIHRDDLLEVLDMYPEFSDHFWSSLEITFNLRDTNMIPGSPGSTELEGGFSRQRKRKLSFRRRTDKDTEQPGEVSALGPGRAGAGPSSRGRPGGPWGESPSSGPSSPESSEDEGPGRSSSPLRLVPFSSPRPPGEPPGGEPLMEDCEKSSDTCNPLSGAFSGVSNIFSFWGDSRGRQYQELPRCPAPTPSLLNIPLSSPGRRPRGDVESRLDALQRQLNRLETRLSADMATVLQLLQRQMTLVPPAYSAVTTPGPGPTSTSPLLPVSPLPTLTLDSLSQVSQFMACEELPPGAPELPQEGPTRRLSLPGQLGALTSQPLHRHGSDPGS
row,SMILES,"hERG current change (%, negative = inhibition) at 1uM [%]"
1,Cc1cccnc1NC(=O)C1CCN(S(=O)(=O)c2c(C)noc2/C=C/c2ccco2)CC1,8.83
2,Cc1cc(Br)ccc1NC(=O)CN(C)C(=O)CN1C(=O)NC2(CCCC2)C1=O,14.1
3,CSc1sc(C(=O)NC(=O)NCc2ccncc2)c(C)c1-c1ccon1,14.1
4,Cc1ccc(C(=O)NC(C)c2ccncc2)o1 (stereo not drawn),13.9
5,COc1ccc(CCNC(=O)COc2ccc(-c3ccccc3)cc2)cc1OC,13.7
6,O=C(CN1CCCCCC1)Nc1ccc(S(=O)(=O)N2CCOCC2)cc1,9.84
7,COc1ccc(-n2c(/C=C/c3ccc(O)cc3)nc3ccccc3c2=O)cc1,0.34
8,O=C(c1ccc2nc3ccc(Cl)cc3c(=O)n2c1)N1CCOCC1,-29.3
9,O=C(Oc1ccc(Cl)c2ccccc12)N1CCCCC1,14.2
10,COc1cccc(C(=O)Nc2ccccc2C(=O)NC2CC2)c1,8.99
11,O=C(NCCCN1CCOCC1)c1cc(-c2ccccc2)on1,5.24
12,COc1ccc(C(=O)C(C)Sc2nnc(C3CC3)n2C2CC2)cc1 (stereo not drawn),10.7
13,Cc1c(C(=O)CN2CCN(c3ccccc3)CC2)c2ccccc2n1C,15.7
14,c1ccc2sc(NN=C3CCCC3)nc2c1,11.6
15,O=C(Cn1cc([N+](=O)[O-])cn1)NCc1ccc(-n2cccn2)cc1,0.0873
16,CN(C)c1nc2n(c(=S)n1)CCS2,7.21
17,COCCCN(CCCN)Cc1ccco1,11.1
18,CCn1c(SCC(=O)N/N=C/c2ccc(C)o2)nnc1-c1ccc(C(C)(C)C)cc1,-1.43
19,CC(C)c1ccc(S(=O)(=O)N2CCN(C(=O)c3ccncc3)CC2)cc1,2.2
20,Cc1cccc(OCCNc2cc(N3CCN(CCO)CC3)ccc2[N+](=O)[O-])c1.Cl,2.14
21,O=C(c1ccncc1)N(Cc1ccco1)Cc1cc2ccccc2[nH]c1=O,-11.4
22,C=CCNC(=S)NNC(=O)C(CCC(C)C)CC(C)(C)O (stereo not drawn),-1.52
23,O=C(Nc1ccccc1Cl)c1ccccc1Cc1ccccc1,7.35

row,SMILES,"hERG current change (%, negative = inhibition) at 1uM [%]"
1,Cc1sc2nc(CSCC(=O)Nc3ccc(OC(F)F)cc3)[nH]c(=O)c2c1C,-12.6
2,CN(CC(=O)NCc1cccc(F)c1)C(=O)c1ccco1,2.28
3,Cc1cc(C)c(NC(=O)CO/N=C2\CCCc3nonc32)c(C)c1,3.23
4,Cc1cc(C)cc(NC(=S)N2C3CCCC2CC(NC(=O)C2CC2)C3)c1 (stereo not drawn),1.42
5,CSc1nnnn1-c1ccc(C(=O)OCC(=O)N2CCOCC2)cc1,9.77
6,O=C(Cc1ccccc1)NC(c1ccco1)c1c(O)ccc2ccccc12 (stereo not drawn),14.1
7,O=C(NC1CCCCC1)c1ccccc1NC(=O)C1CC1,9.76
8,Cc1ccc(S(=O)(=O)NCCC(=O)OCC(=O)N(C)c2ccccc2)cc1,19.6
9,O=[N+]([O-])c1ccc(O)c(/C=N/Nc2ccccn2)c1,13.4
10,COc1ccc(/C=N/S(=O)(=O)c2ccc(C)cc2)cc1,24.9
11,COC(=O)c1cc(OC)c(OC)cc1NC(=O)c1cc(-c2ccccc2)nc2ccccc12.Cl,1.68
12,C=C(C)Cc1c(C)c(C#N)c2nc3ccccc3n2c1NCCCN(C)C,-7.57
13,CCOC(=O)c1oc2ccccc2c1COC(=O)CNC(=O)c1cccc(C)c1,17
14,CN(CC(O)COc1ccc(OCC(O)CN(C)C2CCCCC2)cc1)C1CCCCC1 (stereo not drawn),10.4
15,CCOC(=O)c1ccc(NC(=O)Nc2cc(C)cc(C)n2)cc1,11.4
16,O=C(Cc1cccs1)N/N=C/C(Br)=C/c1ccccc1,10.4
17,Cc1ccc(S(=O)(=O)N2CCN(S(C)(=O)=O)C2)cc1,10.8
18,NC(=S)NNC(=O)COc1ccccc1O,9.22
19,Cc1cc(-c2ccccc2)cc(-c2ccccc2)[n+]1C.[Cl-],1.72
20,CCc1cccc(NC(=O)CN(c2ccc(C)cc2)S(=O)(=O)c2c(C)noc2C)c1,6.21
21,C=C(C)c1cccc(C(C)(C)NC(=O)N(Cc2ccccc2)Cc2ccco2)c1,8.1
22,COc1c2ccoc2c(OC[C@@H](O)C(C)(C)OC)c2oc(=O)ccc12,13.8
23,Cc1ccc(Cn2ccc(NC(=O)c3cc(-c4ccccc4)on3)n2)cc1,5.33

row,SMILES,"hERG current change (%, negative = inhibition) at 1uM [%]"
1,Cc1cc(OCC(=O)NCCc2c[nH]c3ccccc23)c2c(C)cc(=O)oc2c1,12
2,COC(=O)c1sccc1NC(=O)/C=C/C(=O)O,6.32
3,CCN1C(=O)S/C(=C/c2c(OCc3ccc(C(=O)O)cc3)ccc3ccccc23)C1=O,15.4
4,Cc1ccc(S(=O)(=O)n2cnc(C)c2)cc1,4.01
5,COc1ccccc1CNC(=O)c1cc2ccccc2oc1=O,5.12
6,CCc1ccccc1NC(=S)N(CCN1CCCCCC1)Cc1ccco1,-8.23
7,O=C(COC(=O)c1ccccn1)Nc1cccc(Cl)c1,12.3
8,COc1ccc(NS(=O)(=O)c2ccc(NC(C)=O)cc2)c(OC)c1,5.54
9,O=C(NCc1ccccc1)C1=C[C@H](c2ccc(Br)cc2)C[C@H](OCCCCO)O1,2.21
10,CCOC(=O)c1c(NC(=O)CSc2nnnn2-c2ccc(OC)cc2)sc(C)c1C,10.5
11,C#CC[N+](C)(C)CCCCCCCCCCCC.[Br-],2.14
12,O=C(O)c1ccc(N2N=C(c3ccccc3)CC2c2ccccc2)cc1 (stereo not drawn),18
13,N#Cc1c(NC(=O)C2CC(c3c(F)cccc3Cl)=NO2)sc2c1CCC2 (stereo not drawn),-3.01
14,COc1ccc(NC(=O)Nc2cccc(Cl)c2Cl)c(OC)n1,13
15,CC(OC(=O)c1ccc(Cl)nc1)C(=O)NC1CCCC1 (stereo not drawn),15.4
16,CC(C)Cc1nc2n[nH]c(N)c2c2c1CCC2,5.8
17,CCOc1ccc(N2C(=O)CC(Sc3nc(C)cc(C)n3)C2=O)cc1 (stereo not drawn),4.96
18,N#Cc1ccc(OCC(=O)OCC(=O)Nc2cc(C(F)(F)F)ccc2N2CCOCC2)cc1,-5.38
19,O=C(N/N=C\c1c(F)c(F)c(F)c(F)c1F)c1ccc(-c2ccccc2)cc1,4.6
20,COc1ccc(NC(=O)C2CCN(C(=O)[C@@H]3Cc4ccccc4CN3C(=O)OC(C)(C)C)CC2)cc1,12.7
21,C[C@@]12C(=O)OC(=O)[C@]1(C)C1CCC2O1,12.8
22,Cc1ccc(-c2nc3cc(N)ccc3o2)c(C)c1,10.2
23,COc1ccc(C(c2c(O)cc(C)oc2=O)c2c(O)cc(C)oc2=O)cc1,7.44

row,SMILES,"hERG current change (%, negative = inhibition) at 1uM [%]"
1,CCOc1ccc(NC(=O)c2ccc(NC(=O)COC(=O)Cc3ccc(OC)cc3)cc2)cc1,19.8
2,COc1ccccc1C(CNC(=O)CCNC(=O)c1ccccc1Cl)N1CCCC1 (stereo not drawn),0.0429
3,C=CCNC(=O)COC(=O)c1ccc(Cl)c(S(=O)(=O)N(Cc2ccccc2)c2ccccc2)c1,7.04
4,COc1ccc(-c2csc(C3=C(O)CN(Cc4ccc(S(N)(=O)=O)cc4)C3=N)n2)cc1OC,4.7
5,Cc1ccccc1OCC(=O)NCCNC(=O)c1ccncc1,8.59
6,O=C(C1CC1)N1CCc2cc(S(=O)(=O)N3CCN(c4ccccc4)CC3)ccc21,16.8
7,CC(C)N1CC(C(=O)Nc2ccc(Cl)c([N+](=O)[O-])c2)CC1=O (stereo not drawn),15.6
8,CC1Oc2ccccc2N(Cc2ccccc2F)C1=O (stereo not drawn),-3.01
9,C=CC(C)n1c(Br)nc2c1c(=O)[nH]c(=O)n2C (stereo not drawn),-4.27
10,OCc1ccnc2oc3ccccc3c12,14
11,O=C(NCc1cccc(Cl)c1)c1cccc(S(=O)(=O)N2CCCC2)c1,5.16
12,COc1ccccc1NC(=O)C(C)OC(=O)C1COc2ccccc2O1 (stereo not drawn),9.65
13,COCCNC(=O)/C(C#N)=c1\s/c(=C\c2ccccc2OC(F)F)c(=O)n1Cc1ccccc1,5.59
14,O=C(CCCN1C(=O)c2ccccc2C1=O)N1CCN(c2ccccn2)CC1,-6.34
15,O=C1OCCC1Sc1nc2cc(Cl)ccc2n1Cc1ccccc1 (stereo not drawn),-7.57
16,O=[N+]([O-])c1ccc(O)c(/C=N/Nc2ccc(Cl)nn2)c1,14.9
17,Clc1ccc(-c2ccccc2)nn1,7.52
18,Cc1ccc(OCCC(=O)OCC(=O)Nc2ccc(F)cc2)cc1,20.9
19,Cc1cc(C)c2[nH]c(=O)c(C(c3nnnn3C(C)(C)C)N3CCN(C(=O)c4ccco4)CC3)cc2c1 (stereo not drawn),-21.6
20,COc1ccc(C2Nc3ccccc3C(=O)N2c2ccc(Cl)cc2)cc1Cn1cc([N+](=O)[O-])cn1 (stereo not drawn),8.01
21,CN(C)CCNC(=O)COc1cccc2c1OC(C)(C)C2,24.2
